About 120 (0.25%) of roughly 48,000 compounds were called active. Not shown: some 4% with an inconclusive outcome. Calls follow the shape of the dose curve; as a rule, active = well fitted activation curve with a large enough effect; inconclusive = small, poorly fitted or top-dose-only effect, or another doubt; inactive = no such curve, though single readings can be large or run the other way. The list shows a part of the results.
Test: Primary qHTS for Identification of Small Molecule Activators of Huntingtin-Antisense Promoter Activity; also: nearly all actives have a fitted effect of over 55% in size
Conditions: HEK293 HTT-AS promoter firefly luciferase reporter, 24 h; series mostly up to 57.5 µM; activity change, positive = activation: at the top concentration
How it was run: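 HEK293 Fluc reporter, 2,500 cells/well, 24 h pre-culture; cpds up to 57.5 uM final, 24 h 37 degrees C; Dual-Glo, 10 min RT; normalized vehicle = 0%, zero RLU = -100%.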

Row | SMILES | activity change, positive = activation
1 | CCc1ccc(-n2nc3cc(C)c(NC(=O)c4cccc5ccccc45)cc3n2)cc1 | inactive: 12.7%
2 | Cc1ccc(-n2nc(CO)c(C(=O)NCc3ccccn3)n2)cc1C | inactive: 10.9%
3 | CC1CCn2c(nc3cc(C(=O)NCCc4ccc(Cl)cc4)ccc32)C1 (stereo not drawn) | inactive: -1.86%
4 | CCOC(=O)c1noc2ncn(CC(=O)Nc3ccc(C)c(F)c3)c(=O)c12 | inactive: -8.59%
5 | Cc1cccc(NC(=O)CCS(=O)(=O)c2ccc3c(c2)n(C)c(=O)c(=O)n3C)c1C | inactive: 1.44%
6 | CCOC(=O)C1CCCN(C(=O)c2nn(-c3ccc(OC)cc3)c(=O)c3c2c2ccccc2n3C)C1 (stereo not drawn) | inactive: -9.8%
7 | CCc1cccc(NC(=O)C2CCN(C(=O)c3cnn(-c4ccccc4)c3-n3cccc3)CC2)c1 | inactive: -45.2%
8 | Cc1ccc(-n2c(=O)c3c(C)c(C(=O)N(C)C)sc3n(CC(=O)C(C)(C)C)c2=O)cc1C | inactive: 4.93%
9 | Cc1cc2c(cc1CC(=O)c1sccc1S(=O)(=O)Nc1onc(C)c1Cl)OCO2 | inactive: -4.68%
10 | CCc1ccc(-n2nc(C)c3c(C)cc(=O)n(CC(=O)N4CCCc5ccccc54)c32)cc1 | inactive: 11.5%
11 | O=c1cc(-c2ccccc2)n2c(SCc3ccccc3)nnc2[nH]1 | inactive: 11.2%
12 | Cc1c(C(=O)N(Cc2ccccc2F)C2CCS(=O)(=O)C2)oc2ccc(F)cc12 (stereo not drawn) | inactive: -8.44%
13 | CCOc1ccc(/C=C(\C#N)c2nc3ccccc3c(=O)[nH]2)cc1OC | inactive: -7.49%
14 | CCOc1ccccc1NC(=O)C1CCCN(S(=O)(=O)c2c(C)[nH]c(=O)[nH]c2=O)C1 (stereo not drawn) | inactive: -1.03%
15 | CCOc1ccc(-c2nonc2NC(=O)c2oc3ccc(Br)cc3c2C)cc1 | inactive: -40.9%
16 | O=C(CSc1nnc(-c2ccccc2)c(-c2ccccc2)n1)NC1CCCCC1 | inactive: -20.4%
17 | Cc1ccc(N2CC(NC(=O)Cc3cccs3)CC2=O)cc1C (stereo not drawn) | inactive: -5.13%
18 | CCOC(=O)N1CCc2c(sc(NCc3cccc(F)c3)c2C(=O)Nc2ccccc2OCC)C1 | inactive: -14.8%
19 | O=C(O)c1cn(-c2ccc(F)cc2)c2cc(N3CCNCC3)c(F)cc2c1=O | inactive
20 | COC(=O)c1nnn(CC(=O)NC(=O)Nc2cccc(C)c2C)c1C(=O)OC | inactive: 17%
21 | CCc1nc2ccc(C(=O)N3CCN(c4ccccc4)CC3)cc2nc1CC | inactive: -13.3%
22 | CC(C)CN(CCCNC(=O)Cn1ncc2c3ccccc3n(C)c2c1=O)CC(C)C | inactive: -5.37%
23 | Cc1ccc(CNC(=O)c2cc3c(s2)-c2ccccc2SC3)cc1 | inactive: -7.37%
24 | CCOC(=O)c1cc(-c2ccccc2)n(CC(=O)NC(C)c2ccccc2)c1C (stereo not drawn) | inactive: -23%

Row | SMILES | activity change, positive = activation
25 | CCOC(=O)c1ccc(NC(=O)Nc2c[nH]c(=O)[nH]c2=O)cc1 | inactive: -14.9%
26 | COc1ccc(Cl)cc1NC(=O)CCS(=O)(=O)c1nc(-c2cccs2)cc(C(F)(F)F)n1 | inactive: -56.6%
27 | CCc1ccc(OC(C)C(=O)N2CCC(c3nc4ccccc4s3)CC2)cc1 (stereo not drawn) | inactive: -6.71% [at 11.5 µM, percent change from vehicle, -100% = no light]
28 | CC(C)COc1ccc(C(=O)Nc2cccc(-c3nc4ccccc4[nH]3)c2)cc1 | inactive: -35%
29 | Cc1cc(C)cc(NC(=O)CCS(=O)(=O)c2cc3c4c(c2)CCN4C(=O)CC3)c1 | inactive: -8.04%
30 | COc1ccccc1-c1cc2nc(C)c(CCC(=O)Nc3ccc(Br)c(C)c3)c(C)n2n1 | inactive: -50.5%
31 | O=C(NC1(C(F)(F)F)C(=O)Nc2c1c(=O)[nH]c(=O)n2CCc1ccccc1)c1ccc(Cl)cc1Cl (stereo not drawn) | inactive: -4.54%
32 | COc1ccccc1CNC(=O)CCCc1nnc2n(CC(C)C)c(=O)c3sccc3n12 | inactive: -15.2%
33 | CC(C)N(C(=O)CSc1nc2ccc(Cl)cc2[nH]1)c1ccccc1 | inactive: -21.4%
34 | COc1ccccc1CNC(=O)CCC1N=C2c3ccccc3N=C(SCc3cccc(Cl)c3)N2C1=O (stereo not drawn) | inactive: -17.2%
35 | O=C(c1ccc(F)cc1)N1c2nc(-c3ccco3)nn2C2(CCCCC2)[C@@H]2CCCC[C@@H]21 | inactive: -32.5%
36 | CCOc1ccc(OCC)c(NS(=O)(=O)c2cc(Br)cc3c2N(C(C)=O)C(C)C3)c1 (stereo not drawn) | inactive: -40.1%
37 | COc1ccc(-c2cc3nc(-c4ccc(C)cc4)cc(C(F)(F)F)n3n2)cc1 | inactive: -4.42%
38 | CCC(=O)Nc1nnc(SCc2cc(=O)c3cc(C)ccc3[nH]2)s1 | inactive: -32.7%
39 | CCOc1cc(-c2nnc(SCC(=O)Nc3ccc(F)c(F)c3)nc2-c2ccc(OC)c(OCC)c2)ccc1OC | inactive: -8.16%
40 | Cc1c(C(=O)OC2CCCC2)[nH]c2c1C(=O)CC(c1ccc(Cl)cc1)C2 (stereo not drawn) | inactive: -4.11%
41 | CC(=O)N1CCc2c(sc3c2c(=O)n(-c2ccccc2)c(=O)n3CC(=O)Nc2cccc(C)c2)C1 | inactive: -27.5%
42 | CCOc1ccc(CNS(=O)(=O)c2c(C(=O)N3CCC(C)CC3)c(C)n(C)c2C)cc1OC | inactive: -8.46%
43 | CCCS(=O)(=O)N1CC(=O)N(c2cc(C)ccc2C)C(C)(C(=O)NC2CCCCCC2)C1 (stereo not drawn) | inactive: -4.36%
44 | Cc1cccc(N2CCn3c2nc2c3c(=O)n(CCc3ccccc3)c(=O)n2C)c1 | inactive: -2.53%
45 | COc1cccc(-c2cn3c(n2)sc2cc(C(=O)NCCc4ccc(OC)c(OC)c4)ccc23)c1 | inactive: -10.6%
46 | CC(C)N1C(=O)C(O)(c2c[nH]c3ccccc23)c2ccccc21 (stereo not drawn) | inactive: -19%
47 | N#CC1=C(N)N(c2cccc(Cl)c2)C2=C(C(=O)CCC2)C1c1cc(CN2CCOCC2)cs1 (stereo not drawn) | inactive: -8.91%
48 | CSc1cccc(NC(=O)CN2CCN(Cc3ccccc3C)S2(=O)=O)c1 | inactive: -15.8%

Row | SMILES | activity change, positive = activation
49 | Cc1cccc(N2C(=O)CS(=O)(=O)C23C(=O)N(Cc2c(F)cccc2Cl)c2ccccc23)c1 (stereo not drawn) | inactive: -22.4%
50 | Cc1cc(C)cc(Oc2coc3cc(OCC(=O)NC4CCCCC4)ccc3c2=O)c1 | inactive: -15.4%
51 | Cc1cc(N)c(-n2cc3c(c2-c2ccc(Br)cc2)c(=O)n(C)c(=O)n3C)cc1C | inactive: -28.1%
52 | O=C(O)CCCNc1cc(N2CCN(C3CCCCC3)CC2)c2noc3c2c1C(=O)c1ccccc1-3 | inactive: -28.8%
53 | CCOc1ccc(-c2cc(C(=O)Nc3ccc(NC(C)=O)cc3)no2)cc1 | inactive: -0.964%
54 | CCOc1ccc(OCC)c(NC(=O)CC(C)n2nc(C)cc2C)c1 (stereo not drawn) | inactive: -6.76%
55 | Cc1ccc2onc(CNC(=O)NCc3cccc(Cl)c3)c2c1 | inactive: -17.5%
56 | CCc1ccccc1NC(=O)Cn1nc(C(F)(F)F)c2c1CCCC2 | inactive: -10.9%
57 | Clc1cccc(CNc2cc(-c3ccccc3)nc3nncn23)c1 | inactive: -34.2%
58 | Cc1cc(C)c(NC(=O)CCn2c(=O)c3cccn3c3cccnc32)c(C)c1 | inactive: -5.11%
59 | OCCN1CCN(C(c2ccccc2Cl)c2sc3nc(-c4ccco4)nn3c2O)CC1 (stereo not drawn) | inactive: -2.11%
60 | CNC(=O)c1nn(C)c2c1C(C)(C)Cc1cnc(Nc3ccc(N4CCN(C)CC4)cc3)nc1-2 | inactive: -41.2%
61 | FC(F)(F)Oc1ccc2c(c1)NC(c1ccncc1)=NC(c1cccs1)=N2 | inactive: -11.9%
62 | O=C(COc1ccc(Cl)cc1)Nc1ccc(C(=O)OCc2cc(=O)n3ccsc3n2)cc1 | inactive: 0%
63 | C=Cc1ccc(Cn2c(C)c(CNCCc3ccccc3C)c(C(=O)O)c2C)cc1 | inactive: -25.2%
64 | Cc1ccn2c(=O)c(C(=O)NCCCN3CCCCC3C)c(O)nc2c1 (stereo not drawn) | inactive: -6.89%
65 | Cc1ccc(NC(=O)CCSc2nc(-c3ccco3)cc(C(F)(F)F)n2)cc1F | inactive: 13.2% [at 11.5 µM, percent change from vehicle, -100% = no light]
66 | COc1ccc2oc(=O)c(C(=O)Nc3ccc(C(=O)O)cc3)cc2c1 | inactive: 7.14%
67 | Nc1ccc(S(=O)(=O)Nc2ccc(Cl)nn2)cc1 | inactive: -6.68%
68 | COc1ccc(OCC(=O)Nc2nnc3n2CCS3)cc1 | inactive: -4.96%
69 | CCOC(=O)N1CCN(Cc2nc3cc(NC(=O)c4ccc(OC)cc4)ccc3n2C(C)C)CC1 | inactive: -53.4%
70 | CCOc1ccc(NC(=O)CC2C(=O)N(c3ccc(C)cc3)C(=O)N2CCC2=CCCCC2)cc1 (stereo not drawn) | inactive: 4.84%
71 | Nc1nonc1-c1nc2ccccc2n1Cc1cccc(Cl)c1 | inactive: -23.1%
72 | Cc1ccc(CN(C(=O)c2ccccc2F)c2ccccn2)o1 | inactive: 9.19%

Row | SMILES | activity change, positive = activation
73 | CC(C)c1ccc(NC(=O)c2ccc(F)c(S(=O)(=O)N3CCc4ccccc4C3)c2)cc1 | inactive: -25.5%
74 | O=C(c1cccn2c(=O)c3cc(Cl)ccc3nc12)N1CCN(c2ccccc2F)CC1 | inactive: -5.35%
75 | Cc1ccc(/C=N/NC(=O)c2ccccc2Oc2ccccc2)o1 | inactive: -19.5%
76 | CC(=O)Nc1ccc(S(=O)(=O)N2CCC(c3nnnn3-c3ccccc3)CC2)cc1 | inactive: -31.4%
77 | CCOc1ccc(-n2nc(CO)c(C(=O)NCCCc3ccccc3)n2)cc1 | inactive: -3.69%
78 | COc1ccc(Cl)cc1NC(=O)Cn1cc(C(=O)c2ccc(C)cc2)c(=O)c2ccc(C)nc21 | inactive: -11%
79 | CCOc1ccc(C(=O)Nc2cccc(C(=O)OCc3cc(=O)n4nc(C5CC5)sc4n3)c2)cc1 | inactive: -45.6%
80 | CCOC(=O)c1ccccc1NC(=O)CSc1nc(=O)[nH]c2c1CCC2 | inactive: -7.88%
81 | Cc1ccccc1CN1C(=O)C2(c3ccccc31)N(c1ccccc1)C(=O)CS2(=O)=O (stereo not drawn) | inactive: -9.13%
82 | COc1ccc(CCNC(=O)c2c(O)nc3ccccn3c2=O)cc1 | inactive: -6.69%
83 | COc1cccc(OCCSc2nc(C)c(Cc3ccccc3)c(=O)[nH]2)c1 | inactive: -16.2%
84 | Cc1ccc(N(C)C(=O)C2CCN(S(=O)(=O)c3c(C)noc3/C=C/c3c(C)cc(C)cc3C)CC2)cc1 | inactive: -1.28%
85 | COc1ccc(NC(=O)CCCN2C(=O)CCn3nc(-c4cn(C)c5ccccc45)cc32)cc1OC | inactive: -12.4%
86 | O=P(O)(O)OCC(O)CO (stereo not drawn) | inactive: 0.532%
87 | Cc1cccc(N2CCN(S(=O)(=O)c3ccc4[nH]c5c(c4c3)CCCCC5)CC2)c1C | inactive: 11.3%
88 | Cc1cccc(C(=O)NCC(=O)OCc2cc(=O)n3nc(C4CCCCC4)sc3n2)c1 | inactive: -3.88%
89 | COc1ccccc1C(=O)Nc1cc2c(cc1N1CCCC1)n(C)c(=O)c(=O)n2C | inactive: -2.99%
90 | COc1cccc(NC(=O)C2=C(C)C(=O)OC23CCN(C(C)=O)CC3)c1 | inactive: -20.7%
91 | COc1cc2c(cc1OC)C(COc1ccc3c(C)cc(=O)oc3c1)N(C(=O)c1cc(Cl)ccc1OC)CC2 (stereo not drawn) | inactive: 14.4%
92 | CCC(=O)N1c2ccc(S(=O)(=O)NCc3ccc(F)cc3)cc2CC1C (stereo not drawn) | inactive: -32.1%
93 | CCN(CC)C(=O)Cn1nnc2sc(-c3ccccc3)cc2c1=O | inactive: 3.84%

Reference: PubChem BioAssay AID1508624 (National Center for Advancing Translational Sciences (NCATS), 2021)
